Results taken from PubChem BioAssay AID624296 (National Center for Advancing Translational Sciences (NCATS), 2012).
Among all 350,000 compounds or so, about 9,900 (2.8%) were called active. Inconclusive means that the source gave no clear call. Such entries were picked first, then a sample of the others. The call rests on the fitted dose curve; in most records, active means well fitted activation curve with a large enough effect; inconclusive means small, poorly fitted or top-dose-only effect; inactive means no such curve, though single readings can be large or run the other way. Potencies of inconclusive entries are left out as doubtful fits.

test: A quantitative high throughput screen for small molecules that induce DNA re-replication in MCF 10a normal breast cells.; further: nearly all actives have a fitted effect of over 50% in size; conditions: MCF 10A DNA re-replication, Hoechst nuclear intensity, 48 h; series mostly up to 46.1 µM
Potency means the concentration at half of the fitted maximal effect; tags describe the fitted curve by direction and shape.

Structure (SMILES)	Potency
CCOC(=O)Cc1cc(=O)n2[nH]c(C)c(-c3ccccc3)c2n1	inconclusive [activator, partial curve]
Cc1nn2c(NCc3ccccn3)cc(C(C)C)nc2c1-c1ccccc1	inconclusive [activator, single point]
CCc1nnc(NC(=O)CCN(c2cc(C)cc(C)c2)S(=O)(=O)c2ccc(Cl)cc2)s1	inconclusive [activator, partial curve, poor fit]
Cc1ccc(CN(Cc2ccc(C)o2)C(=S)NCC(=O)O)cc1	inactive
CCCC1CCc2c(sc(N)c2C(N)=O)C1 (stereo not given)	inconclusive [activator, single point]
CCOC(=O)c1c(CN2CCN(CCO)CC2)n(C)c2cc(Br)c(OC)cc12	inconclusive [activator, single point]
CC(C)Cn1c(=O)c(C(=O)NCc2ccccn2)c(O)c2ccccc21	inconclusive [activator, partial curve, poor fit]
ClC(Cl)c1nnc(-c2ccccc2)c(-c2c[nH]c3ccccc23)n1	active: 25.9 µM
O=C(O)C1CC=CCC1C(=O)Nc1cccc(C(=O)N2CCCCC2)c1 (stereo not given)	inconclusive [activator, single point]
Cc1cc(C)c(C)c(S(=O)(=O)N2CCN(C(=O)CNC(=O)c3ccco3)CC2)c1C	inactive
CCN(CC(=O)Nc1ccc2c(c1)OCCO2)C(=O)CC(NC(C)=O)c1ccccc1 (stereo not given)	inactive
Cc1cc(C)n2nc(NCc3ccccc3)nc2n1	inactive
CCOC(=O)c1cc(C)sc1NC(=S)Nc1ccccc1	inactive
C=CCN(Cc1ccc(OC)c(OC)c1)C(=O)c1cc2cc(F)ccc2[nH]1	inactive
CN1C(=O)/C(=C\C(=O)c2cccs2)c2ccccc21	inconclusive [activator, single point]
COc1ccc(/C=N/Nc2cc(C)nc(N3CCOCC3)n2)c(OC)c1	inconclusive [activator, single point]
CCOc1cccc2cc(C(=O)Oc3ccc(OC)cc3)c(=O)oc12	inactive
COc1ccc(-c2c3c(nc4sc5c(=O)[nH]c(C)nc5c24)CCC3)cc1	inconclusive [activator, single point]
Cc1ccc(Cn2nnnc2CN2CCC(O)(c3ccccc3F)CC2)cc1	inconclusive [activator, single point]
Cc1ccc(N2CC(C(=O)N(C)CC(=O)Nc3ccc(Cl)c(C(F)(F)F)c3)CC2=O)cc1 (stereo not given)	inconclusive [activator, single point]
